Measured values from PubChem BioAssay (NCATS).
Several values for one entry are separate records, joined by “and”; a condition that tells them apart may be missing. Identical values can stand only once. The inconclusive results got no clear call from the source; some entries with a clear call stand among them for comparison. For some assays here: Where the call is inconclusive, the potency comes from a doubtful curve fit. Activity calls are given as the source filed them. Unless noted, the call rests on the fitted dose curve; in most records, active means well fitted curve in the direction sought with a large enough effect; inconclusive means small, poorly fitted or top-dose-only effect, or another doubt; inactive means no such curve, though single readings can be large; an effect the other way counts as inactive or inconclusive.

Legend:
[1] = qHTS Assay for Identification of Small Molecule Agonists for Hypoxia Response Element Signaling Pathway (AID 914; active means well fitted activation curve with a large enough effect in the signal ratio, with a control signal flat, not every such curve was filed as active; inconclusive means small, poorly fitted or top-dose-only effect, or effect the other way, or a change in a side signal; the % refers to the signal ratio; further: top concentration of the series differs between compounds; % of control where 0% means no effect); conditions: ME-180 HRE-bla reporter, beta-lactamase ratio, CoCl2, 17 h; activation: active compounds read high
Method in brief: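 AC50 values come from titration-series %Activity, taken as the 460/530nm ratio of CCF4 fluorescence (excitation 405nm). CellSensor HRE-bla ME-180 cells were treated 17 hours at 37 C with compound plus an EC50 level of CoCl2.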

[2] = target: Parathyroid hormone/parathyroid hormone-related peptide receptor (Homo sapiens) (UniProt Q03431); experiment: qHTS for PTHR1 Agonists: Optimization Screen against the NCGC LOPAC library (AID 1347079); conditions: HEK293 GP2 PTHR1 GloSensor cAMP luminescence, 1 h; series mostly up to 57.1 µM;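 further: GloSensor cAMP luminescence in HEK-293 GP2 cells expressing human PTHR1 with IBMX; potency means the concentration at half of the fitted maximal effect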
Chain of UniProt Q03431 (Q03431 whole entry, looked up): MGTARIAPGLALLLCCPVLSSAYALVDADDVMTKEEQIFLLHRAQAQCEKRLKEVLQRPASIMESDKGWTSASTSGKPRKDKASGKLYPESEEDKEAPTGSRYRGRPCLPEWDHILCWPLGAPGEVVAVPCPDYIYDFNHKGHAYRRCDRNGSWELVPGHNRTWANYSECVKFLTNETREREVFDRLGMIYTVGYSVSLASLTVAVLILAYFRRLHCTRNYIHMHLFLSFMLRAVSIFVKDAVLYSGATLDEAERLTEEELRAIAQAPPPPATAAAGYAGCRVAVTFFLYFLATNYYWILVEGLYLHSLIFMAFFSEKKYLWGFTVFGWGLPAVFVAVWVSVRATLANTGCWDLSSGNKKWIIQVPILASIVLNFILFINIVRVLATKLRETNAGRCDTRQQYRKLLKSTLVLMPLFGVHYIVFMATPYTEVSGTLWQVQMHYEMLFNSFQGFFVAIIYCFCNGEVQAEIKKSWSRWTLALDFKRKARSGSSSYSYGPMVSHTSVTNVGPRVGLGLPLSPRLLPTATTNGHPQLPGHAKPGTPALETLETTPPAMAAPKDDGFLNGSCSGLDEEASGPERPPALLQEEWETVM
Method in brief: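 Compounds were tested across a qHTS titration. PTHR1-expressing GP2 cells report cAMP rises via GloSensor luminescence after 1 hr compound exposure at 37C with IBMX present.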

[3] = Validation screen for small molecules that induce genotoxicity in human embryonic kidney (HEK293T) cells expressing luciferase-tagged ELG1 (AID 493106); conditions: luminescence; series mostly up to 46.1 µM; further: potency means the concentration at half of the fitted maximal effect
Method in brief: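 HEK293T cells expressing luciferase-tagged ELG1 were exposed to compound or DMSO vehicle for 16 hr at 37 °C, 5% CO2. Genotoxic stress raises ELG1 levels, so increased luciferase signal after ONE-Glo addition and 30 min at room temperature marks hits.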

[4] = target: Glucagon-like peptide 1 receptor (Homo sapiens) (UniProt P43220); experiment: qHTS of GLP-1 Receptor Agonists: LOPAC Validation (AID 624148); conditions: GLP-1R agonist cell assay; activation: at 46.1 µM (top of the series);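 further: luminescence from a luciferase reporter switched on by cAMP; potency means the concentration at half of the fitted maximal effect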
Chain of UniProt P43220 (P43220 whole entry, looked up): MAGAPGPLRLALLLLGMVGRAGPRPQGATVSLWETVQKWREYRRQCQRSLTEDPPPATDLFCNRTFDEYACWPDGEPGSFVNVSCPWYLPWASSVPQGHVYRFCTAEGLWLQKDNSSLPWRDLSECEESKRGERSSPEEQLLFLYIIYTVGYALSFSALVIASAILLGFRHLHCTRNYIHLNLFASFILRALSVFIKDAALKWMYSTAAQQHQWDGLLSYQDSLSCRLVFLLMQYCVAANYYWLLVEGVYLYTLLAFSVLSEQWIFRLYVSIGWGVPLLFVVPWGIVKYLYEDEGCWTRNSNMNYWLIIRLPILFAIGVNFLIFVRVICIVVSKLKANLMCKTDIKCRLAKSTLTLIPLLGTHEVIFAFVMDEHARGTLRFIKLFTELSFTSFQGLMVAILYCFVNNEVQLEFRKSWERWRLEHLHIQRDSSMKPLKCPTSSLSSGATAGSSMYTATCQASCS
Method in brief: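 Agonism scored as increased luciferase luminescence driven by cAMP in HEK293 clones carrying GLP-1R. Cells settled 12 hours, received compound for 4-6 hr at 37 deg C, 5% CO2, and were read after 12 min detection reagent at RT.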

[5] = qHTS for Activators of Parkin Expression: LOPAC Validation Assay (NLuc Reporter) (AID 720572; further: potency means the concentration at half of the fitted maximal effect); conditions: Parkin promoter NanoLuc reporter cells, luminescence; series mostly up to 46.1 µM
Method in brief: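 Parkin promoter-driven FLuc/NLuc neuronal reporter cells; 24 h plating, 7-pt dose response, 24 h at 37 C/5% CO2; FLuc then NanoLuc reagent, 10 min each, luminescence; DMSO/positive control normalized.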

[6] = Validation of Assay for Modulators of Lamin A Splicing (AID 1459; active means well fitted curve in the direction sought with a large enough effect in the signal ratio; inconclusive means small, poorly fitted or top-dose-only effect, or effect the other way, or a change in a side signal; inactive means no such curve, though single readings can be large or run the other way; the % refers to the signal ratio; further: potency means the concentration at half of the fitted maximal effect;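 on ratio change, both ways: cells exposed to compound for two days before reading; 0% is about no effect; ratio rise marks activators and ratio drop marks inhibitors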); conditions: Lamin A splicing dual RFP/GFP fluorescence reporter; Potency: ratio unless noted; ratio change, both ways: at 9.22 µM unless noted
Method in brief: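 Splicing correction is reported by an EGFP-containing lamin A minigene in stably transfected S3 HeLa cells, while DsRed2 controls for viability and nonspecific signal. Cells are exposed to compounds for 48 hrs before the GFP over RFP ratio is taken.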

[7] = tested on: Zika virus NS2B-NS3 protease (unlinked complex); experiment: Confirmatory screen GU AMC qHTS for Zika virus inhibitors (AID 1347153); conditions: Recombinant NS2B-NS3 protease, AMC substrate fluorescence; series mostly up to 57.1 µM; further: nearly all actives have a fitted effect of over 70% in size
Method in brief: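 Compounds were preincubated 15 min at room temperature with 25 nM noncovalent NS2B-NS3 protease at pH 8.0; AMC substrate added at 10 microM and 15-min fluorescence gain (340/450 nm) converted to percent inhibition, fitted 4-parameter.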

[8] = Confirmatory screen NINDS Rhodamine qHTS for Zika virus inhibitors (AID 1347161); conditions: purified enzyme assay, Rhodamine110 substrate fluorescence, 15 min; series mostly up to 114 µM; further: potency means the concentration at half of the fitted maximal effect; nearly all actives have a fitted effect of over 60% in size
Method in brief: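 Enzyme (25 nM, linked NS2B-NS3) was preincubated 15 min with compound in 10 mM Tris-HCl pH 8.0, 0.01% Tween 20. Rhodamine110 substrate (1.5 microM) was then added and fluorescence read at start and after 15 min.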

[9] = Cytometric Cell-Based qHTS for Inhibitors of the mTORC1 Signaling Pathway in MEF (Tsc2-/-, p53-/-) Cells (AID 2660); conditions: mTORC1 pathway cytometry; series mostly up to 38.3 µM;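 further: Tsc2 and p53 null MEFs carrying empty vector with compound for 24 h; percent of cells above a phospho-rpS6 to PI ratio cutoff in each well; plate controls were DMSO for no effect and rapamycin for full effect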
Method in brief: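 Immunofluorescence qHTS of rpS6 Ser235/236 phosphorylation: MEFs (Tsc2-/-, p53-/-) treated 24 h, 37 C, in DMEM + 10% FBS. Alexa-488 signal normalized to PI count, referenced to rapamycin (7.5 nM) and DMSO; PI cell number recorded for viability.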

[10] = qHTS of Trypanosoma Brucei Inhibitors: LOPAC Validation (AID 624147); conditions: purified enzyme assay, luminescence, 45 min; series mostly up to 57.5 µM; further: potency means the concentration at half of the fitted maximal effect; on activity change, negative = inhibition: 0% is about no effect
Method in brief: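 T. brucei PYK with substrate was exposed to pin-transferred compounds across a concentration series, then started with 130 uM ADP (final). After 45 min at room temperature, Kinase-Glo Plus luminescence was read, normalized and curve-fitted.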

[11] = qHTS for Activators of Parkin Expression: LOPAC Validation Assay (FLuc Reporter) (AID 720573; further: potency means the concentration at half of the fitted maximal effect;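 on activation: 0% = DMSO and 100% = positive control compounds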); conditions: Cell line, PRKN promoter firefly luciferase reporter; series mostly up to 46.1 µM
Method in brief: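 A neuronal cell line harbouring FLuc and NLuc reporters behind the Parkin promoter was exposed to compounds for 24 h. Firefly luciferase signal, measured after 10 min with detection reagent, was scaled to DMSO and positive-control wells.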

[12] = target: Thioredoxin reductase 1, cytoplasmic (Rattus norvegicus) (UniProt O89049); experiment: qHTS Assay for Substrates of Mammalian Selenoprotein Thioredoxin Reductase 1 (TrxR1) (AID 488772); conditions: purified TrxR1, NADPH consumption substrate assay; series mostly up to 57.1 µM;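 further: NADPH fluorescence in the first read after selenite addition and not the 8 min delta; 0% is about no effect; a drop in NADPH fluorescence below the no-compound background marks a TrxR1 substrate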
Chain of UniProt O89049 (O89049 whole entry, looked up): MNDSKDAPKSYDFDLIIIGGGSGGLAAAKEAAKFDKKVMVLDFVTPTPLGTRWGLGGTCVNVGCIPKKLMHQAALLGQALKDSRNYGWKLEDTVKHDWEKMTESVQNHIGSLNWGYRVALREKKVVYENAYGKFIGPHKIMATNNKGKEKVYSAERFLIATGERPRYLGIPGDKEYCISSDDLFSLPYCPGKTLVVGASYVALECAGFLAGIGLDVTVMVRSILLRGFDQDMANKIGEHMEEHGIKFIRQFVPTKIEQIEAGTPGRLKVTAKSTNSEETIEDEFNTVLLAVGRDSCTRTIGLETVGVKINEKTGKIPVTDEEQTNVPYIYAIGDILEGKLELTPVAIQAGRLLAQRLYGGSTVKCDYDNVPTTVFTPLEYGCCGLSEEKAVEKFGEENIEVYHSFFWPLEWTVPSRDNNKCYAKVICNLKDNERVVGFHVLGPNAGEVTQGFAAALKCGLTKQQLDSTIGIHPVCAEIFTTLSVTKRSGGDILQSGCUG
Method in brief: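 Quantitative HTS in Tris-HCl buffer at pH 7.5 with EDTA and Tween-20, using rat TrxR1, 400 uM NADPH and 400 uM selenite (final). A fall in initial NADPH fluorescence relative to background marked substrate behaviour.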

[13] = AP1 Signaling Pathway (AID 357; active means well fitted curve in either direction with a large enough effect, not every such curve was filed as active; inconclusive means small, poorly fitted or top-dose-only effect, or another doubt;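 further: ME-180 reporter cells stimulated with EGF at its EC50 level; top concentration of the series differs between compounds; on the % scale 0 is the no-effect control and ±100 the full control effect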); conditions: ME-180 (cervical carcinoma) AP-1-bla reporter, EGF-induced, beta-lactamase ratio, 5 h; at 38 µM (top of the series)
Method in brief: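 AP-1-bla ME-180 cells, Opti-MEM + 0.5% dialyzed FBS, plated overnight 37 °C. Cpd titration + EC50 EGF, 5 h 37 °C. CCF4 2.5 h RT; ex 405, em 460/530 ratio → %activity, AC50.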

[14] = target: Cytochrome P450 2C9 (Homo sapiens) (UniProt P11712); experiment: qHTS Assay for Inhibitors and Substrates of Cytochrome P450 2C9 (AID 883); conditions: recombinant CYP2C9, luciferin-H luminescence, 60 min; series mostly up to 57.1 µM; further: on the % scale 0 is the no-effect control and ±100 the full control effect; nearly all actives have a fitted effect of over 60% in size
Chain of UniProt P11712 (P11712 whole entry, looked up): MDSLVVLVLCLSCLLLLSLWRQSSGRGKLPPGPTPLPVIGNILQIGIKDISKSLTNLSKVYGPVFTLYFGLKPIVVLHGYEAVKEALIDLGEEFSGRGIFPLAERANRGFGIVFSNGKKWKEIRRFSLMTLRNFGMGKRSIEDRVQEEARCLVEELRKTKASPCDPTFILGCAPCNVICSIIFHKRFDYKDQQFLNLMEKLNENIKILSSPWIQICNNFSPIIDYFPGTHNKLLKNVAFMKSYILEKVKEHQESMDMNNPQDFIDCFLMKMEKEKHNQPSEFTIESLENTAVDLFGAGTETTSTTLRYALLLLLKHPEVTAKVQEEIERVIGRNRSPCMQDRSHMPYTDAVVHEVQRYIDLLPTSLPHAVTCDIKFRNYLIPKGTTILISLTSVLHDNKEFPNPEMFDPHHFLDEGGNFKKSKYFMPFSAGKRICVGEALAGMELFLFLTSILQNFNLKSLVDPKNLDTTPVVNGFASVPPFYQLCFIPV
Method in brief: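 Luminescent read-out of deoxyluciferin hydroxylation, normalized to 57uM sulphaphenazole (AC100). Reaction: 10nM enzyme, 100uM Luciferin-H (equal to KM), 25mM KPO4, 10 min compound preincubation, then 60 min with NADPH regeneration, both at 37C.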

[15] = Confirmatory qHTS for small molecule stabilizers of the endoplasmic reticulum resident proteome: Secreted ER Calcium Modulated Protein (SERCaMP) assay (AID 1508628); conditions: SERCaMP secreted luciferase ER calcium/proteostasis reporter; series mostly up to 76.3 µM; further: potency means the concentration at half of the fitted maximal effect; nearly all actives have a fitted effect of over 40% in size
Method in brief: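 We seeded SH-SY5Y-GLuc-SERCaMP cells, added compounds (three concentrations in the primary run, eleven up to 76.6 uM in confirmation), incubated 16 h, depleted ER calcium with thapsigargin, and read luciferase 4 h later.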

[16] = Cell Viability qHTS for small molecule stabilizers of the endoplasmic reticulum resident proteome (AID 1508629); conditions: cell viability counter-screen, 100 nM thapsigargin for final 4 h;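 further: potency means the concentration at half of the fitted maximal effect; compound exposure about 46 h in total before the viability read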
Tags describe the fitted curve by direction and shape or compound fluorescence and quenching.

## CCCn1c(=O)c2c(ncn2C)n(CCC)c1=O
[1]
  activation: inactive: 3.52%
[2]
  Potency: inconclusive: 37.7 µM [activator, single point]

## C=CC1(C)CC(=O)C2(O)C(C)(O1)C(OC(C)=O)C(O)C1C(C)(C)CCC(O)C12C (stereo not given)
[3]
  Potency: inconclusive: 0.092 µM [activator, full curve]
[4]
  Potency: active: 1.03 µM
[5]
  Potency: inconclusive: 20.6 µM [activator, single point]
[2]
  Potency: active: 21.2 µM

## Nc1nc2ccc(Cl)cc2c2nc(-c3ccco3)nn12
[6]
  ratio change, both ways: inconclusive: 32.8% [at 46.1 µM]
[2]
  Potency: active: 6.7 µM
[7]
  Potency: inactive
[8]
  Potency: inconclusive: 44 µM [inhibitor, partial curve]

## NC(N)=NCCCCN=C(N)N
[9]
  Potency: inactive

## CC1CNCCN1S(=O)(=O)c1cccc2cnccc12 (stereo not given)
[9]
  Potency: inactive
[10]
  Potency: inactive
[5]
  Potency: inconclusive: 20.6 µM [activator, single point]
[11]
  Potency: inconclusive: 16.4 µM [activator, single point]

## CC(N)=NCCCC[C@@H](N)C(=O)O
[12]
  Potency: inactive
[3]
  Potency: inactive

## N=C(N)c1ccccc1
[13]
  activity change, negative = inhibition: inactive: 10.4%

## C=CCN1CCc2c(cc(O)c(O)c2Br)[C@@H](c2ccccc2)C1
[7]
  Potency: inactive
[8]
  Potency: inconclusive: 19.7 µM [inhibitor, partial curve]

## O=C(O)Cc1c[nH]c2ccc(O)cc12
[14]
  Potency: inactive
[9]
  Potency: inactive
[10]
  Potency: inconclusive: 16.9 µM [inhibitor, partial curve]

## c1ccc2nc(C3=NCCN3)ccc2c1
[11]
  Potency: inactive
[2]
  Potency: active: 26.7 µM

## Cc1ccccc1/C=C/C1=NCCN1
[15]
  Potency: active: 11.2 µM
[16]
  Potency: inconclusive: 15.8 µM [cytotoxic, partial curve]

## CCCc1c(OCCCOc2ccc(OCC(=O)O)cc2)ccc(C(C)=O)c1O
[6]
  Potency: inconclusive: 12.6 µM [activator, partial curve, poor fit]
[7]
  Potency: inconclusive: 24.1 µM [inhibitor, partial curve]

## NC(N)=[N+]1CCc2ccccc2C1
[13]
  activity change, negative = inhibition: inactive: -5.39%

## CC(C)NC[C@H](O)c1ccc(O)c(O)c1
[4]
  Potency: inconclusive: 146 nM [activator, full curve] and inconclusive: 231 nM [activator, full curve]

## COc1cc(N)c(Cl)cc1C(=O)OCCN1CCCCC1
[11]
  Potency: inconclusive: 2.06 µM [activator, full curve]

## NC(N)=NC(N)=Nc1cccc(Cl)c1
[11]
  Potency: inactive

## O=C(O)[C@H]1NCCC[C@H]1C(=O)O
[9]
  Potency: inactive

## O=C(c1ccc2c(c1)OCCO2)N1CCCCC1
[13]
  activity change, negative = inhibition: inactive: 1.86%
